# From the supplement of paper PMC8728848
# The other results are listed elsewhere or left out.
# B1: F17bG (Escherichia coli), Q47200 (protein)
# chain: MTNFYKVFLAVFILVCCNISHAVVSFIGSTENDVGPSQGSYSSTHAMDNLPFVYNTGYNIGYQNANVWRIGGGFCVGLDGKVDLPVVGSLDGQSIYGLTEEVGLLIWMGDTNYSRGTAMSGNSWENVFSGWCVGNYLSTQGLSVHVRPVILKRNSSAQYSVQKTSIGSIRMRPYNGSSAGSVQTTVNFSLNPFTLNDTVTSCRLLTPSAVNVSLAAISAGQLPSSGDEVVAGTTSLKLQCDAGVTVWATLTDATTPSNRSDILTLTGASTATGVGLRIYKNTDSTPLKFGPDSPVKGNENQWQLSTGTETSPSVRLYVKYVNTGEGINPGTVNGISTFTFSYQ
# Assays:
# Assay in all cases: glycan array binding signal (z-score within array); higher = stronger binding
# Conditions in all cases: glycan notation: IUPAC condensed, linker removed
# [1] = target: Neu5Ac(a2-3)Gal(b1-3)GalNAc(b1-3)Gal(b1-4)GlcNAc
# How it was run: (§1)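 Arrays were curated from the Consortium for Functional Glycomics database, 3228 in total, and kept only where the protein sequence was available. Binding is expressed as a within-array Z-score. This score was averaged across arrays of the same protein sequence at different concentrations or buffers and across linkers, and negative values can be read as non-binding.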
# [2] = target: Neu5Ac(a2-3)Gal(b1-3)GalNAc(b1-4)[Neu5Ac(a2-3)]Gal(b1-4)Glc
# How it was run: as §1
# [3] = target: Neu5Ac(a2-3)Gal(b1-3)GalNAc6S
# How it was run: as §1
# [4] = target: Neu5Ac(a2-3)Gal(b1-3)GlcNAc
# How it was run: as §1
# [5] = target: Neu5Ac(a2-3)Gal(b1-3)GlcNAc6S
# How it was run: as §1
# [6] = target: Neu5Ac(a2-3)Gal(b1-3)[Fuc(a1-4)]GlcNAc
# How it was run: as §1
# [7] = target: Neu5Ac(a2-3)Gal(b1-3)[Fuc(a1-4)]GlcNAc(b1-3)Gal(b1-4)[Fuc(a1-3)]GlcNAc
# How it was run: as §1
# [8] = target: Neu5Ac(a2-3)Gal(b1-3)[Neu5Ac(a2-3)Gal(b1-4)]GlcNAc
# How it was run: as §1
# [9] = target: Neu5Ac(a2-3)Gal(b1-3)[Neu5Ac(a2-6)]GalNAc
# How it was run: as §1
# Neu5Ac(a2-3)Gal(b1-4)Glc = target: Neu5Ac(a2-3)Gal(b1-4)Glc
# How it was run: as §1
# [10] = target: Neu5Ac(a2-3)Gal(b1-4)GlcNAc
# How it was run: as §1
# [11] = target: Neu5Ac(a2-3)Gal(b1-4)GlcNAc(b1-2)Man(a1-3)[Neu5Ac(a2-3)Gal(b1-4)GlcNAc(b1-2)Man(a1-6)]Man(b1-4)GlcNAc(b1-4)GlcNAc
# How it was run: as §1
# [12] = target: Neu5Ac(a2-3)Gal(b1-4)GlcNAc(b1-3)Gal(b1-4)GlcNAc
# How it was run: as §1
# [13] = target: Neu5Ac(a2-3)Gal(b1-4)GlcNAc(b1-3)Gal(b1-4)GlcNAc(b1-3)Gal(b1-4)GlcNAc
# How it was run: as §1
# [14] = target: Neu5Ac(a2-3)Gal(b1-4)GlcNAc(b1-3)Gal(b1-4)[Fuc(a1-3)]GlcNAc
# How it was run: as §1
# [15] = target: Neu5Ac(a2-3)Gal(b1-4)GlcNAc6S
# How it was run: as §1
# [16] = target: Neu5Ac(a2-3)Gal(b1-4)[Fuc(a1-3)]GlcNAc
# How it was run: as §1
# [17] = target: Neu5Ac(a2-3)Gal(b1-4)[Fuc(a1-3)]GlcNAc(b1-3)Gal
# How it was run: as §1
# [18] = target: Neu5Ac(a2-3)Gal(b1-4)[Fuc(a1-3)]GlcNAc(b1-3)Gal(b1-4)GlcNAc
# How it was run: as §1
# [19] = target: Neu5Ac(a2-3)Gal(b1-4)[Fuc(a1-3)]GlcNAc(b1-3)Gal(b1-4)[Fuc(a1-3)]GlcNAc(b1-3)Gal(b1-4)[Fuc(a1-3)]GlcNAc
# How it was run: as §1
# [20] = target: Neu5Ac(a2-3)Gal(b1-4)[Fuc(a1-3)]GlcNAc6S
# How it was run: as §1
# [21] = target: Neu5Ac(a2-3)Gal6S(b1-4)GlcNAc
# How it was run: as §1
# [22] = target: Neu5Ac(a2-3)Gal6S(b1-4)[Fuc(a1-3)]GlcNAc
# How it was run: as §1
# Neu5Ac(a2-3)GalNAc = target: Neu5Ac(a2-3)GalNAc
# How it was run: as §1
# [23] = target: Neu5Ac(a2-3)GalNAc(b1-4)GlcNAc
# How it was run: as §1
# [24] = target: Neu5Ac(a2-3)[GalNAc(b1-4)]Gal(b1-4)Glc
# How it was run: as §1
# [25] = target: Neu5Ac(a2-3)[GalNAc(b1-4)]Gal(b1-4)GlcNAc
# How it was run: as §1
# [26] = target: Neu5Ac(a2-3)[Neu5Ac(a2-6)]GalNAc
# How it was run: as §1
# Neu5Ac(a2-6)Gal = target: Neu5Ac(a2-6)Gal
# How it was run: as §1
# Neu5Ac(a2-6)Gal(b1-4)Glc = target: Neu5Ac(a2-6)Gal(b1-4)Glc
# How it was run: as §1
# [27] = target: Neu5Ac(a2-6)Gal(b1-4)GlcNAc
# How it was run: as §1
# [28] = target: Neu5Ac(a2-6)Gal(b1-4)GlcNAc(b1-3)Gal(b1-4)GlcNAc
# How it was run: as §1
# [29] = target: Neu5Ac(a2-6)Gal(b1-4)GlcNAc(b1-3)Gal(b1-4)[Fuc(a1-3)]GlcNAc(b1-3)Gal(b1-4)[Fuc(a1-3)]GlcNAc
# How it was run: as §1
# [30] = target: Neu5Ac(a2-6)Gal(b1-4)GlcNAc6S
# How it was run: as §1
# Neu5Ac(a2-6)GalNAc = target: Neu5Ac(a2-6)GalNAc
# How it was run: as §1
# [31] = target: Neu5Ac(a2-6)GalNAc(b1-4)GlcNAc
# How it was run: as §1
# Neu5Ac(a2-8)Neu5Ac = target: Neu5Ac(a2-8)Neu5Ac
# How it was run: as §1
# [32] = target: Neu5Ac(a2-8)Neu5Ac(a2-3)Gal(b1-4)Glc
# How it was run: as §1
binder,measurement,setting,value
B1,glycan array binding signal (z-score),[1],0.937
same,glycan array binding signal (z-score),[2],-0.117
same,glycan array binding signal (z-score),[3],0.222
same,glycan array binding signal (z-score),[4],-0.129
same,glycan array binding signal (z-score),[5],0.227
same,glycan array binding signal (z-score),[6],-0.293
same,glycan array binding signal (z-score),[7],0.23
same,glycan array binding signal (z-score),[8],-0.082
same,glycan array binding signal (z-score),[9],0.06
same,glycan array binding signal (z-score),Neu5Ac(a2-3)Gal(b1-4)Glc,-0.498
same,glycan array binding signal (z-score),[10],0.027
same,glycan array binding signal (z-score),[11],-0.167
same,glycan array binding signal (z-score),[12],0.462
same,glycan array binding signal (z-score),[13],0.027
same,glycan array binding signal (z-score),[14],0.05
same,glycan array binding signal (z-score),[15],0.048
same,glycan array binding signal (z-score),[16],0.153
same,glycan array binding signal (z-score),[17],-0.413
same,glycan array binding signal (z-score),[18],0.716
same,glycan array binding signal (z-score),[19],-0.321
same,glycan array binding signal (z-score),[20],0.104
same,glycan array binding signal (z-score),[21],0.11
same,glycan array binding signal (z-score),[22],0.055
same,glycan array binding signal (z-score),Neu5Ac(a2-3)GalNAc,-0.22
same,glycan array binding signal (z-score),[23],-0.02
same,glycan array binding signal (z-score),[24],-0.136
same,glycan array binding signal (z-score),[25],-0.287
same,glycan array binding signal (z-score),[26],0.536
same,glycan array binding signal (z-score),Neu5Ac(a2-6)Gal,0.397
same,glycan array binding signal (z-score),Neu5Ac(a2-6)Gal(b1-4)Glc,-0.408
same,glycan array binding signal (z-score),[27],-0.204
same,glycan array binding signal (z-score),[28],-0.305
same,glycan array binding signal (z-score),[29],-0.279
same,glycan array binding signal (z-score),[30],0.143
same,glycan array binding signal (z-score),Neu5Ac(a2-6)GalNAc,-0.231
same,glycan array binding signal (z-score),[31],-0.319
same,glycan array binding signal (z-score),Neu5Ac(a2-8)Neu5Ac,-0.189
same,glycan array binding signal (z-score),[32],-0.136
